PubChem BioAssay AID1508642 (National Center for Advancing Translational Sciences (NCATS), 2021)
Screen size: about 43,000 compounds; about 200 (0.47%) were called active. Inconclusive results, whose numbers are uncertain, are shown with a selection of clear calls. Calls follow the shape of the dose curve; as a rule, active = well fitted cell-killing curve with a large enough effect; inconclusive = small, poorly fitted or top-dose-only effect, or effect the other way; inactive = flat fitted curve, though single readings scatter. Where the call is inconclusive, the potency comes from a doubtful curve fit.

experiment: Cell viability qHTS assay in S16 Pmp22-F2sN cells; settings: S16 Pmp22-F2sN Schwann cells viability, CellTiter-Glo, 24 h; activity change, negative = cytotoxicity: at 57.5 µM (top of the series); also: nearly all actives have a fitted effect of over 65% in size
Outline: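 S16 Pmp22-F2sN Schwann cells (500-1,000/well) in phenol-red-free DMEM with 10% FBS received 23 nL compound by pin tool for 24 h at 37 °C. Viability was then read as CellTiter-Glo luminescence after 15 min at room temperature.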
% is scaled to controls: 0 for no effect and ±100 for the full control effect; potency is read from the fitted curve at half-maximal effect; tags tell the direction and shape of the fitted curve.

SMILES	Potency	activity change, negative = cytotoxicity
Cc1cc2c(cc1C)NC(CC(=O)Nc1cccc(Cl)c1)C(=O)N2 (stereo unspecified)	inconclusive: 25.1 µM [cytotoxic, single point]	
Cc1cccc2sc(N(Cc3cccnc3)C(=O)c3cccs3)nc12	inconclusive: 3.16 µM [cytotoxic, single point]	
CCOC(=O)c1cc(-c2ccccc2)n(CCCC(=O)Nc2cccc(C)c2C)c1C		inactive: -0.125%
CCOC(=O)c1c(NC(=O)c2ccc(S(=O)(=O)N3CCC(C)CC3)cc2)sc2c1CCN(CC)C2	inconclusive: 35.5 µM [cytotoxic, single point]	
C=Cc1ccc(Cn2nc(-c3ccc(C)cc3)ccc2=O)cc1		inactive: -15.3%
CCOC(=O)c1ccc(N2C(=O)c3n[nH]c(-c4ccco4)c3C2c2ccc(O)c(OCC)c2)cc1 (stereo unspecified)	inconclusive: 39.8 µM [cytotoxic, single point]	
Cc1cccc(Nc2nnc(-c3ccc(C)c(S(=O)(=O)NCC4CCCO4)c3)c3ccccc23)c1 (stereo unspecified)	inconclusive: 17.8 µM [cytotoxic, single point]	
O=C1CC(c2nnc(Cc3ccc(F)cc3Cl)o2)CN1c1ccccc1 (stereo unspecified)		inactive: -5.13%
Cn1nc(-c2ccccc2F)c2cc(C(=O)NCCc3ccc(Cl)cc3)sc21	inconclusive: 28.2 µM [cytotoxic, single point]	
Brc1cccc(-c2nnc(CN3CCN(c4ccccn4)CC3)o2)c1		inactive: -0.962%
CC(=O)c1ccc(NC(=O)CSc2ccc(-c3cccs3)nn2)cc1		inactive: 11.5%
CCCn1c2ccccc2c2cnn(CC(=O)NCc3ccccc3Cl)c(=O)c21		inactive: 0.0236%
O=C(Nc1cccc(Cl)c1)c1ccc2nc(CCc3ccccc3)oc2c1	inconclusive: 35.5 µM [cytotoxic, partial curve, poor fit]	
CCCCN1C(=O)c2[nH]nc(-c3ccccc3O)c2C1c1ccc(C(C)(C)C)cc1 (stereo unspecified)	inconclusive: 28.2 µM [cytotoxic, single point]	
COc1cccc(C2CC(=O)Nc3cc4c(cc32)OCO4)c1OC(C)C (stereo unspecified)		inactive: 13.6%
Cc1ccc(C2=Nc3ccccc3N(CC(=O)Nc3ccccc3F)C(=O)C2)cc1C	inconclusive: 39.8 µM [cytotoxic, single point]	
COc1ccc(CNC(=O)c2ccc3nc(CCc4ccccc4)oc3c2)cc1OC	inconclusive: 20 µM [cytotoxic, partial curve]	
CC(C)CC(=O)Nc1nc2c(s1)CC(C(C)(C)C)CC2 (stereo unspecified)	inconclusive: 39.8 µM [cytotoxic, single point]	
COc1ccc(-n2nc3c(N4CCCC(C(=O)NCc5ccc(C)cc5)C4)nnc(C)c3c2C)cc1 (stereo unspecified)	inconclusive: 39.8 µM [cytotoxic, single point]	
CCCNC(=O)c1cnn2c(C)c(Cc3c(C)cc(C)cc3C)c(C)nc12	inconclusive: 14.1 µM [cytotoxic, partial curve]	
CC(=O)NCCNc1nc2c(S(=O)(=O)c3ccc(C)c(C)c3)nnn2c2ccc(Cl)cc12	inconclusive: 31.6 µM [cytotoxic, single point]	

SMILES	Potency	activity change, negative = cytotoxicity
CCCNC(=O)c1ccc(-n2c(-c3ccccc3)cc3c2CCCCC3)cc1		inactive: 0.252%
O=C(NCc1ccccc1)c1ccc(NC(=O)c2nsc3ccccc23)cc1	inconclusive: 14.1 µM [cytotoxic, partial curve, poor fit]	
Cc1ccc(NC(=O)C(NS(=O)(=O)c2ccc3c(c2)CCC(=O)N3)c2ccccc2)cc1C (stereo unspecified)	inconclusive: 44.7 µM [cytotoxic, partial curve, poor fit]	
Cc1ccc(CNS(=O)(=O)c2ccc3c(c2)CCN3S(C)(=O)=O)cc1		inactive: -24.8%
COc1ccc2nc(N(Cc3cccnc3)C(=O)c3ccc4c(c3)OCCO4)sc2c1		inactive: -2.31%
CCOc1ccccc1C(=O)Nc1ccc2c(c1)N(C)C(=O)c1ccccc1S2	inconclusive: 5.62 µM [cytotoxic, full curve, poor fit]	
Cc1c(C2=CCN(S(=O)(=O)c3cccc(Cl)c3)CC2)c2ccccc2n1CC(=O)N1CCCC1	inconclusive: 39.8 µM [cytotoxic, partial curve, poor fit]	
CCCc1nc(SC)ncc1C(=O)N1CCN(c2ccc(Cl)cc2)CC1	inconclusive: 39.8 µM [cytotoxic, single point]	
O=C(Nc1ccc2nc(SCC(=O)N3CCc4ccccc43)sc2c1)c1ccc(F)cc1		inactive: 20%
O=C(NCCc1ccccc1)C1CCC(CNS(=O)(=O)c2ccccc2)CC1 (stereo unspecified)	inconclusive: 0.178 µM [cytotoxic, full curve, poor fit]	
CCN1C(=O)c2ccccc2S(=O)c2ccc(C(=O)N3CCN(c4cccc(C)c4)C(C)C3)cc21 (stereo unspecified)	inconclusive: 2.51 µM [rising, single point]	
COc1ccc(/C=C(\C#N)c2nc(-c3cc4c(ccc5ccccc54)oc3=O)cs2)cc1O	inconclusive: 17.8 µM [cytotoxic, partial curve, poor fit]	
Cc1ccc(NC(=O)Cn2c(=O)n(CCCCC(=O)NCc3ccccc3Cl)c(=O)c3ccccc32)cc1C	inconclusive: 39.8 µM [rising, single point]	
COc1ccccc1NC(=O)CN1CCCN(S(=O)(=O)c2ccc(Br)cc2)CC1	inconclusive: 39.8 µM [cytotoxic, single point]	
CCN1CCOC(=O)C1CC(=O)Nc1cc(C)cc(C)c1 (stereo unspecified)	inconclusive: 39.8 µM [cytotoxic, single point]	
COc1cc(C(=O)NC(c2ccc(Cl)cc2)c2cc(Cl)c3cccnc3c2O)cc(OC)c1OC (stereo unspecified)	active: 3.16 µM	
CCCn1c(=NC(=O)c2cc3ccccc3o2)c(C(=O)OCC)cc2c(=O)n3ccccc3nc21	inconclusive: 25.1 µM [cytotoxic, single point]	
CC(=O)c1ccc(NC(=O)CCOc2ccccc2)cc1	inconclusive: 39.8 µM [cytotoxic, single point]	
COc1ccccc1Cn1cc(C(=O)c2ccc(C)cc2)c(=O)c2cc3c(cc21)OCCO3	inconclusive: 25.1 µM [cytotoxic, single point]	
Cc1c(C)n(C)c2ccc(C(=O)NCc3cccc(F)c3)cc12	inconclusive: 7.08 µM [rising, single point]	
